Data taken from the BET-seq Pho4 binding data (Le et al. 2018).
The list shows a part of the results. These are noisy estimates, calculated here from bound and input reads.

Target: T1, Pho4 (S. cerevisiae) (UniProt P07270)
T1 sequence: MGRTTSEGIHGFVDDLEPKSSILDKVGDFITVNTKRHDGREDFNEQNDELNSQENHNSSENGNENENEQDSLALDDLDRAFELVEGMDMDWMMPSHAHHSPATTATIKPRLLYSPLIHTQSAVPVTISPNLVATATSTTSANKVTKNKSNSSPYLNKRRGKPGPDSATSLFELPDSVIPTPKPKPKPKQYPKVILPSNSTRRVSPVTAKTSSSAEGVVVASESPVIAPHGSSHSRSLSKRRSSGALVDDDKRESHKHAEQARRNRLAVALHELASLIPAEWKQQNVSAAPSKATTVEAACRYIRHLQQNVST
Assay: relative binding free energy (BET-seq); higher = weaker binding
Details: reference: library average

Sequence	relative binding free energy
ATCTGCACGTGAGAGG	0.23 kcal/mol
AGGGACACGTGGATGT	-0.04 kcal/mol
TTGGTCACGTGGACGT	0.14 kcal/mol
AAGAGCACGTGTGGTA	-0.2 kcal/mol
ACTGACACGTGGGAGT	-0.05 kcal/mol
TACATCACGTGTGGGT	0.16 kcal/mol
CGGGTCACGTGTAAGT	0.17 kcal/mol
TAGTTCACGTGTGCAT	0.31 kcal/mol
AGCAGCACGTGCGGGG	-0.06 kcal/mol
GAGGGCACGTGTGCAT	0.02 kcal/mol
GTCGGCACGTGTGTTA	0.02 kcal/mol
TTTTTCACGTGTGACA	0.11 kcal/mol
GATAGCACGTGGTTAT	-0.01 kcal/mol
CATTGCACGTGTAGGT	0.04 kcal/mol
TGAATCACGTGGATTT	0.16 kcal/mol
TGTAACACGTGAAGTT	0.31 kcal/mol
CCGGGCACGTGTTGGG	-0.1 kcal/mol
ATAAACACGTGGTGGG	-0.15 kcal/mol
GGCTGCACGTGGGTTA	-0.24 kcal/mol
TGTGTCACGTGCTAAT	0.13 kcal/mol
TACAGCACGTGGAGTT	0.04 kcal/mol
CTAGACACGTGGTTTT	0.01 kcal/mol
GATTGCACGTGATGGT	0.23 kcal/mol
CTTGGCACGTGAGGTT	0.04 kcal/mol
TCTTTCACGTGTGTAT	0.34 kcal/mol
TTACGCACGTGGTTCG	-0.09 kcal/mol

Sequence	relative binding free energy
TCGAGCACGTGTGGAA	0.07 kcal/mol
TTTGACACGTGAAAAG	0.24 kcal/mol
TTTTGCACGTGCCTTT	-0.03 kcal/mol
TGGTTCACGTGTCGCG	0.22 kcal/mol
GTAGTCACGTGTTTGG	0.1 kcal/mol
AAATGCACGTGTGAAG	0.07 kcal/mol
TTGATCACGTGGGGAG	0 kcal/mol
AATTTCACGTGGTGTT	0.24 kcal/mol
ATGGGCACGTGGGCTT	-0.19 kcal/mol
GGGTGCACGTGGCGTG	-0.07 kcal/mol
GTGATCACGTGTGGCG	0.04 kcal/mol
TGTAGCACGTGCTTGG	-0.25 kcal/mol
TCGGTCACGTGGGAGA	0.07 kcal/mol
GGTGCCACGTGTATTT	0.08 kcal/mol
ATAATCACGTGTTGGA	0.07 kcal/mol
GTATGCACGTGCGTCT	-0.1 kcal/mol
TTCGGCACGTGGGAGA	-0.14 kcal/mol
TAGTTCACGTGTTGCG	0.18 kcal/mol
CTGCGCACGTGTAGGT	-0.17 kcal/mol
TGCGTCACGTGTGTAT	0.1 kcal/mol
TGAGGCACGTGGTGGG	-0.19 kcal/mol
CGATTCACGTGGATGG	0.05 kcal/mol
ATATGCACGTGTTGAC	0.03 kcal/mol
CTCGGCACGTGGTAGT	-0.2 kcal/mol
TGTGTCACGTGGATAC	0.04 kcal/mol
TTAAGCACGTGGCGGC	-0.05 kcal/mol

Sequence	relative binding free energy
TGGGGCACGTGGGCGC	-0.17 kcal/mol
TGTGCCACGTGATCGG	-0.04 kcal/mol
CGGCGCACGTGGCGGT	-0.14 kcal/mol
GGCGTCACGTGTGGGT	0.1 kcal/mol
ATGCTCACGTGGGATG	0.26 kcal/mol
CCTTTCACGTGTGTTT	0.09 kcal/mol
TGTAGCACGTGAACGG	0.24 kcal/mol
GTTGGCACGTGTCGCT	0.07 kcal/mol
AGCATCACGTGTAAGG	0.18 kcal/mol
AAGTGCACGTGGCTGA	-0.1 kcal/mol
GAAGGCACGTGATAGG	-0.08 kcal/mol
TGGGACACGTGCCGTG	-0.09 kcal/mol
ATAATCACGTGGGTTC	0.06 kcal/mol
TACGTCACGTGGTGGA	0.01 kcal/mol
GTCGGCACGTGCTTTT	0.14 kcal/mol
TCTGGCACGTGAAGTT	0.28 kcal/mol
TTACTCACGTGAGGGG	0.32 kcal/mol
GTCGACACGTGTCAGG	0.25 kcal/mol
ATATGCACGTGAGCGG	0.05 kcal/mol
TGTTGCACGTGGGGCC	-0.18 kcal/mol
GTTGTCACGTGGTAAA	0.18 kcal/mol
AAGTTCACGTGCGGGG	0.37 kcal/mol
AGGGTCACGTGTTACG	0.16 kcal/mol
TATGGCACGTGTGACT	0.06 kcal/mol
TTATGCACGTGGTATT	-0.03 kcal/mol
TAGTGCACGTGTAGTC	0.08 kcal/mol

Sequence	relative binding free energy
TGTAGCACGTGTGGTT	0.07 kcal/mol
TCGGTCACGTGGACGT	0.1 kcal/mol
TTGATCACGTGTTCTG	0.07 kcal/mol
GTGGGCACGTGGTCGA	-0.32 kcal/mol
GGCGACACGTGGGTAG	-0.12 kcal/mol
GGTGTCACGTGTCTTA	0.08 kcal/mol
TGACTCACGTGGAGTA	0.34 kcal/mol
ATGGGCACGTGTGGTT	0.01 kcal/mol
AGGAGCACGTGTGCGG	-0.08 kcal/mol
GTTATCACGTGTTAAA	0.12 kcal/mol
GGTTGCACGTGCTCGG	-0.14 kcal/mol
AGTTGCACGTGACAGG	0.18 kcal/mol
GGTGTCACGTGTTGTG	0.18 kcal/mol
GTAGACACGTGTGTGC	0.09 kcal/mol
GGAATCACGTGATGTA	0.43 kcal/mol
TAGGACACGTGGGATG	-0.06 kcal/mol
TAGTTCACGTGAGGGG	0.48 kcal/mol
TCGGGCACGTGTAGGC	0.03 kcal/mol
CGTATCACGTGAGTGG	0.35 kcal/mol
TTTTACACGTGCATTT	0.05 kcal/mol
GTCGGCACGTGTAAGG	0.03 kcal/mol
ATCGTCACGTGGGTCG	-0.04 kcal/mol
ACTTGCACGTGGTGGA	-0.12 kcal/mol
AGTTACACGTGGAGTG	0.08 kcal/mol
GTGGCCACGTGTGTTG	-0.03 kcal/mol
ATATGCACGTGGAGTG	-0.03 kcal/mol

Sequence	relative binding free energy
AAGGTCACGTGGATTG	0.1 kcal/mol
CATGTCACGTGGGCGG	-0.03 kcal/mol
GAATGCACGTGAGTGG	0.23 kcal/mol
TCGTTCACGTGGTGAA	0.21 kcal/mol
TACTTCACGTGGTATG	0.1 kcal/mol
GAGGCCACGTGTGGTC	0.11 kcal/mol
TTTGCCACGTGGGGAC	-0.2 kcal/mol
TGGTGCACGTGTGTAC	-0.03 kcal/mol
GAGTGCACGTGAGGCA	0.22 kcal/mol
GGTCGCACGTGATGTG	0.18 kcal/mol
AGTTGCACGTGGCAGT	-0.14 kcal/mol
AATTGCACGTGGCGTG	-0.03 kcal/mol
GTTTGCACGTGAGTCG	0.32 kcal/mol
TATTACACGTGGGTGT	-0.04 kcal/mol
CATGTCACGTGTGATA	0.18 kcal/mol
AGTGACACGTGATGTG	0.12 kcal/mol
TTATGCACGTGGCTAG	-0.06 kcal/mol
TTGGGCACGTGCTTGC	-0.05 kcal/mol
TTTGACACGTGAATGG	0.2 kcal/mol
TGGTTCACGTGACGTA	0.33 kcal/mol
GGTAGCACGTGGGAGG	-0.16 kcal/mol
AACCTCACGTGTGGGT	0.33 kcal/mol
GTTGGCACGTGTAGGC	-0.04 kcal/mol
AGGTACACGTGAGGCG	0.17 kcal/mol
TATGGCACGTGACGTT	0.01 kcal/mol
TGCATCACGTGGCGGT	-0.01 kcal/mol

Sequence	relative binding free energy
GGGGCCACGTGGGCTA	-0.13 kcal/mol
GGTCTCACGTGTGTTA	0.24 kcal/mol
AGGGGCACGTGGAATT	0.06 kcal/mol
GCGGTCACGTGGTCTA	0.19 kcal/mol
GCGGACACGTGGGGGA	-0.09 kcal/mol
CGTTACACGTGAATTT	0.36 kcal/mol
TTCGTCACGTGTGGTA	0.13 kcal/mol
ATTGGCACGTGAGATC	0.36 kcal/mol
GGAGCCACGTGAGGGG	0.18 kcal/mol
GTATACACGTGGTTCG	0.03 kcal/mol
TGAGTCACGTGTATAG	0.23 kcal/mol
CATGGCACGTGTGGCA	0.2 kcal/mol
GTTAACACGTGGAATT	0.23 kcal/mol
GTGTTCACGTGGACAT	0.12 kcal/mol
TTTGACACGTGGCGTA	-0.19 kcal/mol
GTGGGCACGTGGGGCG	-0.19 kcal/mol
ATAGCCACGTGTTAGT	-0.11 kcal/mol
AGGGTCACGTGGTGGT	0.09 kcal/mol
TTTAGCACGTGCGGAG	-0.02 kcal/mol
AAGGACACGTGTATTT	0.12 kcal/mol
TTCTGCACGTGTTAAT	-0.1 kcal/mol
GAATTCACGTGTTCGG	0.5 kcal/mol
TCTGGCACGTGTGCAT	-0.11 kcal/mol
CTGTTCACGTGGTAGG	0.2 kcal/mol
TGGTGCACGTGGTCGG	-0.16 kcal/mol
TTTAACACGTGGGTGT	-0.18 kcal/mol

Sequence	relative binding free energy
AATGACACGTGGTGTA	-0.2 kcal/mol
TTTTGCACGTGGTGGG	-0.04 kcal/mol
TTCGACACGTGGTAGT	0.04 kcal/mol
TTGAGCACGTGTTGCA	-0.16 kcal/mol
CCAGGCACGTGTAGGG	-0.12 kcal/mol
AGCTGCACGTGGTGGC	-0.02 kcal/mol
GATAACACGTGTGGGA	0.05 kcal/mol
GAGGGCACGTGTTGCT	-0.08 kcal/mol
GTGTGCACGTGTACAT	0.05 kcal/mol
ACGCTCACGTGGGGGC	0.14 kcal/mol
GGCGGCACGTGATTTT	0.05 kcal/mol
TGTAGCACGTGGGTGG	-0.14 kcal/mol
GTTAACACGTGCGTTA	-0.07 kcal/mol
TAGCGCACGTGTATTG	-0.09 kcal/mol
GGGGTCACGTGTGTTC	0.17 kcal/mol
TCTCTCACGTGGTGGG	0.15 kcal/mol
AAAATCACGTGGCGGT	0.2 kcal/mol
TTATGCACGTGATTGG	0.18 kcal/mol
AGATGCACGTGTTTTT	0.01 kcal/mol
TGTAACACGTGAAGAT	0.15 kcal/mol
TTTGACACGTGGCTGG	-0.03 kcal/mol
AGTATCACGTGTAAGT	0.11 kcal/mol
AGTTCCACGTGTTGTC	0.05 kcal/mol
AGAAGCACGTGGAAGG	-0.07 kcal/mol
TAGAGCACGTGTCTGG	-0.02 kcal/mol
GGTATCACGTGTAATG	0.36 kcal/mol

Sequence	relative binding free energy
TGGATCACGTGTATGA	0.14 kcal/mol
GGTCGCACGTGGATTA	0.05 kcal/mol
GCGGGCACGTGGGCCG	-0.26 kcal/mol
GTTAGCACGTGACTTT	0.21 kcal/mol
TTTGCCACGTGGTGGG	-0.17 kcal/mol
ACGGTCACGTGGTGTG	0 kcal/mol
AATTACACGTGGGTAG	-0.03 kcal/mol
TGTTACACGTGGCGTT	0.04 kcal/mol
TGTATCACGTGTTTGA	0.08 kcal/mol
ATTAGCACGTGGGATA	-0.21 kcal/mol
TATCGCACGTGTTAGG	-0.12 kcal/mol
TAGATCACGTGAGGTA	0.28 kcal/mol
GTGACCACGTGGAGGG	-0.04 kcal/mol
GGGGGCACGTGGCTCG	-0.13 kcal/mol
CTTGTCACGTGTCAGT	0.01 kcal/mol
TGTGGCACGTGCGTCG	-0.2 kcal/mol
TGGGCCACGTGGCTGG	-0.04 kcal/mol
TAGGTCACGTGGTGAT	0.12 kcal/mol
TTACGCACGTGGTTTT	0.02 kcal/mol
AGGATCACGTGTGTAT	0.2 kcal/mol
TAGATCACGTGATGTT	0.28 kcal/mol
GTGCGCACGTGGGTAA	-0.2 kcal/mol
GGGGTCACGTGTTGGA	0.29 kcal/mol
GACAGCACGTGGGTGT	-0.29 kcal/mol
TATGTCACGTGGGACG	-0.09 kcal/mol
GAGTGCACGTGTCTGT	-0.02 kcal/mol

Sequence	relative binding free energy
GGTCGCACGTGGGTTC	-0.09 kcal/mol
AGTTGCACGTGAAATT	0.34 kcal/mol
TGGCGCACGTGGGCCG	-0.23 kcal/mol
GTATACACGTGTTTCT	0.15 kcal/mol
GTGGGCACGTGGTAAG	0 kcal/mol
AGGGGCACGTGTGAAG	-0.05 kcal/mol
TGTGCCACGTGTGCAT	-0.13 kcal/mol
TGTCACACGTGTCGGA	0.25 kcal/mol
GATAGCACGTGGGGCG	-0.14 kcal/mol
TGCATCACGTGTAGGG	0.04 kcal/mol
CGGACCACGTGATGGG	0.18 kcal/mol
CCGTTCACGTGTGGAT	0.33 kcal/mol
ATATTCACGTGTTGGA	0.22 kcal/mol
GGCTCCACGTGCGGGT	0.05 kcal/mol
GTCTTCACGTGATGAG	0.29 kcal/mol
ATAAGCACGTGGGTGA	-0.3 kcal/mol
TAGTGCACGTGAGGAA	0.01 kcal/mol
TCGGGCACGTGTTGAA	-0.02 kcal/mol
TGTTGCACGTGGAGGG	-0.02 kcal/mol
TTAGGCACGTGGTCGG	-0.15 kcal/mol
GAGTACACGTGGTGAT	-0.01 kcal/mol
TTTCGCACGTGGATAG	-0.05 kcal/mol
